This passage reports binding signal (log2 fold change) results from publication PMC5892938.

Some of the results follow. At the low end of the ranking the order means little.

This test addresses GST-SBP-SLBP (stem-loop binding protein) (UniProt Q14493). Kind of test: targeted RNA Bind-n-Seq.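 Further: DESeq read counts versus GST-SBP nonspecific binding control pulldown.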 As to conditions: RBNS binding buffer: 25 mM Tris pH 7.5, 150 mM KCl, 3 mM MgCl2, 0.1% Tween, 0.5 mg/mL BSA, 1 mM DTT; 27 nM protein, 750 pM RNA pool; temperature not stated; high values mean tight binding.
On to “GGUCACGUCUCAAUCAACUCAUCCCCAGGAGUUUCCUCCUGUAAAGUCAACAGCUCGCAGUCAAG”, for which the binding signal (log2 fold change) was determined as 0.227. The value for “GGUCACGUCUCAAUCAACUCAUCUCCAGGAGUUUACUCCUGUUUACUCAACAGCUCGCAGUCAAG” was 0.206; that for “GGUCACGUCUCAAUCAACUCAUAUGAGGGGGGGAAAACCCCUUUACCCUCCAUUUCAACAGCUCGCAGUCAAG” was -0.3.

With “GGUCACGUCUCAAUCAACUCUAUCUCCAGGGAAAACCCUGGUUUUUUCAACAGCUCGCAGUCAAG”, the binding signal (log2 fold change) was -0.0223. The value for “GGUCACGUCUCAAUCAACUCUUCCCCCAGGGAAAACCCUGGCUUACUCAACAGCUCGCAGUCAAG” was 0.128; that for “GGUCACGUCUCAAUCAACUCAUAAGAGGGGGGGAAAACCCCUUUACCCUCACUAUCAACAGCUCGCAGUCAAG” was -0.101.

As for “GGUCACGUCUCAAUCAACUCUAUCUCCAGGGAAACCCCUGGCAUGUUCAACAGCUCGCAGUCAAG”, the binding signal (log2 fold change) is -0.181.

In the case of “GGUCACGUCUCAAUCAACUCAUCGUCAGGAGUUUCCUCCUGUUAACUCAACAGCUCGCAGUCAAG”, the binding signal (log2 fold change) came to 0.0303. The value for “GGUCACGUCUCAAUCAACUCUUUCCCCAGGGAAAUCCCUGGUAAAUUCAACAGCUCGCAGUCAAG” was -0.139; that for “GGUCACGUCUCAAUCAACUCUUUCCCCAGGGAAAACCCUGGUAUUUUCAACAGCUCGCAGUCAAG” was 0.134; that for “GGUCACGUCUCAAUCAACUCAUCCGCAGGAGUUUACUCCUGGUAUUUCAACAGCUCGCAGUCAAG” was 0.0873.

As to “GGUCACGUCUCAAUCAACUCUUUUCCCAGGGAAACCCCUGGUUAACUCAACAGCUCGCAGUCAAG”, the binding signal (log2 fold change) is -0.106. On to “GGUCACGUCUCAAUCAACUCAGUCCCAGGAGUUUACUCCUGUUUUUUCAACAGCUCGCAGUCAAG”, for which the binding signal (log2 fold change) was 0.0919. As to “GGUCACGUCUCAAUCAACUCUUCUUCCAGGGAAAACCCUGGUAAAUUCAACAGCUCGCAGUCAAG”, the binding signal (log2 fold change) was 0.0774. For the sequence “GGUCACGUCUCAAUCAACUCUACUUCCAGGGAAAUCCCUGGCUAACUCAACAGCUCGCAGUCAAG”, the binding signal (log2 fold change) was found to be 0.234. On to “GGUCACGUCUCAAUCAACUCAACGGAGGGGGGGAAAACCCCUUUACCCUCAUCCUCAACAGCUCGCAGUCAAG”, for which the binding signal (log2 fold change) is -0.00288. The value for “GGUCACGUCUCAAUCAACUCUUUUCCAGGAGUUUCCUCCUGUUUUCUCAACAGCUCGCAGUCAAG” was 0.148.

In the case of “GGUCACGUCUCAAUCAACUCUUUCUCCAGGGAAACCCCUGGUAUUCUCAACAGCUCGCAGUCAAG”, the binding signal (log2 fold change) was -0.0572.

For “GGUCACGUCUCAAUCAACUCAAUCCCAGGAGUUUUCUCCUGUAUAUUCAACAGCUCGCAGUCAAG”, the binding signal (log2 fold change) amounted to 0.139. Next, “GGUCACGUCUCAAUCAACUCCUAAGAGGGGGGGAAAACCCCUUUGCCCUCCAUUUCAACAGCUCGCAGUCAAG”: 0.0356; “GGUCACGUCUCAAUCAACUCUUCUCCCAGGGAAAACCCUGGUUAAUUCAACAGCUCGCAGUCAAG”: -0.136; “GGUCACGUCUCAAUCAACUCAAUCCCAGGAGUUUGCUCCUGCAUUUUCAACAGCUCGCAGUCAAG”: 0.0927. In the case of “GGUCACGUCUCAAUCAACUCUACUCCCAGGGAAAUCCCUGGUUAUCUCAACAGCUCGCAGUCAAG”, the binding signal (log2 fold change) was -0.0719.

Take “GGUCACGUCUCAAUCAACUCUUCUUCCAGGGAAACCCCUGGUAUUCUCAACAGCUCGCAGUCAAG”: the binding signal (log2 fold change) is -0.244. The value for “GGUCACGUCUCAAUCAACUCAAUCCCCAGGGAAAUCCCUGGUAUUUUCAACAGCUCGCAGUCAAG” was -0.191; that for “GGUCACGUCUCAAUCAACUCAAUCUCCAGGGAAACCCCUGGUAUUUUCAACAGCUCGCAGUCAAG” was -0.269; that for “GGUCACGUCUCAAUCAACUCUUCGUCCAGGGAAAGCCCUGGCUUAUUCAACAGCUCGCAGUCAAG” was -0.152. As for “GGUCACGUCUCAAUCAACUCCAAAGAGGGGGGGAAAACCCCUUUACCCUCGUUAUCAACAGCUCGCAGUCAAG”, the binding signal (log2 fold change) was -0.227. Turning to “GGUCACGUCUCAAUCAACUCCCACGAGGGGGGGAAAACCCCUUUACCCUCCAUUUCAACAGCUCGCAGUCAAG”, the binding signal (log2 fold change) is -0.181. “GGUCACGUCUCAAUCAACUCAUUCUCAGGAGUUUACUCCUGUUAUCUCAACAGCUCGCAGUCAAG”: the binding signal (log2 fold change) is -0.0746. As for “GGUCACGUCUCAAUCAACUCAUCUUCAGGAGUUUCCUCCUGCAAAUUCAACAGCUCGCAGUCAAG”, the binding signal (log2 fold change) was found to be 0.0445. Next, “GGUCACGUCUCAAUCAACUCAUCCGCAGGAGUUUUCUCCUGGUAUCUCAACAGCUCGCAGUCAAG”: 0.102; “GGUCACGUCUCAAUCAACUCAAUCUCAGGAGUUUGCUCCUGCAAUGUCAACAGCUCGCAGUCAAG”: 0.215; “GGUCACGUCUCAAUCAACUCUUCGCCAGGAGUUUUCUCCUGUUAUCUCAACAGCUCGCAGUCAAG”: -0.0843.

For the sequence “GGUCACGUCUCAAUCAACUCUAUCUCCAGGGAAAUCCCUGGCAAUCUCAACAGCUCGCAGUCAAG”, the binding signal (log2 fold change) was -0.189. The value for “GGUCACGUCUCAAUCAACUCUUUCCCCAGGGAAACCCCUGGUAUACUCAACAGCUCGCAGUCAAG” was -0.132; that for “GGUCACGUCUCAAUCAACUCUCUAGAGGGGGGGAAAACCCCUUUACCCUCACACUCAACAGCUCGCAGUCAAG” was -0.3.
